Laboratory results: article PMC4336329 (PLoS ONE, 2015)
Among all 310,000 compounds or so, about 2,200 (0.71%) showed an effect of 50% or more. Effects have a minus sign here. This is one part of the list.

The molecules below were run against human ether-à-go-go-related gene (hERG) potassium channel (human, UniProt Q12809) (assay: primary screen, population patch clamp on CHO cells stably expressing hERG).
human ether-à-go-go-related gene (hERG) potassium channel, sequence (Q12809 whole entry, looked up): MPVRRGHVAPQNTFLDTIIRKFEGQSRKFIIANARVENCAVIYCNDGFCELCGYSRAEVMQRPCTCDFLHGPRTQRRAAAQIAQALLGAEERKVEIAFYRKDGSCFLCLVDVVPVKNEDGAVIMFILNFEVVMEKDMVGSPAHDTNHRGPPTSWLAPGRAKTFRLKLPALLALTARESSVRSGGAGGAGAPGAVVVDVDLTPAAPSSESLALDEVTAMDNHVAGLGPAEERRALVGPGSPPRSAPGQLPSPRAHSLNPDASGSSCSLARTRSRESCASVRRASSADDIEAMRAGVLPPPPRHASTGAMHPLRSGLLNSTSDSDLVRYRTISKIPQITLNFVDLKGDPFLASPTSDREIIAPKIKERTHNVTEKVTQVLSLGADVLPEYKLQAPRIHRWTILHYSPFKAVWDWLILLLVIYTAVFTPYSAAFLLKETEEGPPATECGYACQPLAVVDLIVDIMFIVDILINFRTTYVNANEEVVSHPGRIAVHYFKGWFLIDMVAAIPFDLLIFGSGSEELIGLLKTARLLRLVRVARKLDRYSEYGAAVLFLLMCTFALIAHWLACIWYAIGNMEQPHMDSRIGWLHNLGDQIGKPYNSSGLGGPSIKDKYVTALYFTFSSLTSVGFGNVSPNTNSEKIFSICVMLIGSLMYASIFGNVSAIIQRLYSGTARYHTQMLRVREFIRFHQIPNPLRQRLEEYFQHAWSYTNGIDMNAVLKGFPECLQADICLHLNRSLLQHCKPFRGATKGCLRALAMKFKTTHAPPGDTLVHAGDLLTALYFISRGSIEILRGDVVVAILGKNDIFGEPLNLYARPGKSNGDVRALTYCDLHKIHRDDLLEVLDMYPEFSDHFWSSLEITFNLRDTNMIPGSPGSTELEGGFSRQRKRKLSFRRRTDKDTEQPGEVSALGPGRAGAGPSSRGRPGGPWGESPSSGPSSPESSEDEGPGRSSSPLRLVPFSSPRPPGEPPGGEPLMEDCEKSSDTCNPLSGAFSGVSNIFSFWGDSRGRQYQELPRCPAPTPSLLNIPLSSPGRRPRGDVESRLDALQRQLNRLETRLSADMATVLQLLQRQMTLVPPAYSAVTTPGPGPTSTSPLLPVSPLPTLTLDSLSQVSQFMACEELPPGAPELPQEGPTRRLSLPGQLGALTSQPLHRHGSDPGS

In order of rising “hERG current change (%, negative = inhibition) at 1uM” value:
1. c1ccc(C2=Nc3ccccc3SC2c2nc3ccccc3[nH]2)cc1 (stereo not drawn)  -32.8%
2. CC(=O)c1ccc(NC(=O)CSc2ccc3nnc(-c4ccccn4)n3n2)cc1  -22.5%
3. O=C(CCC(=O)N1CCOc2ccc(Cl)cc21)NCCCN1CCN(c2ccccc2F)CC1  -22.2%
4. CCN1CCN(CCOc2ccc(Cl)cc2)CC1.O=C(O)C(=O)O  -9.38%
5. CCOC(=O)C1=C(C)N(C)C(C)=C(C(=O)OCC)C1c1ccc(Cl)cc1  -8.96%
6. COc1ccc(-c2cc(C(=O)NC3CC3)c3ccccc3n2)cc1  -8.83%
7. COc1ccc(S(=O)(=O)NC2CCCC2)cc1Cl  -7.9%
8. CN(C)c1cccc(NC(=O)c2ccco2)c1  -5.84%
9. Cc1nc(NC(=O)c2cccnc2)ccc1Br  -3.97%
10. N#Cc1ccccc1OCC(=O)N1N=C(c2cccs2)CC1c1ccco1 (stereo not drawn)  -1.57%
11. COc1ccc(N(CC(=O)Nc2ccc(C)cn2)S(=O)(=O)c2c(C)noc2C)cc1  -1.01%
12. O=C(Cn1nc(C(F)F)cc1C(F)F)NNC(=S)Nc1ccc(Cl)cc1  -0.623%
13. Nc1c2c(nc3sc4c(c13)CCCCC4)CCCC2  -0.57%
14. CC(C)CN(C(=O)c1ccc(Br)o1)C1CCS(=O)(=O)C1 (stereo not drawn)  -0.549%
15. O=C1O/C(=C/c2ccccc2)c2ccccc21  -0.35%
16. Cc1ccccc1C(=O)NNC(=O)c1ccc(F)cc1  -0.329%
17. Cc1cc(C(=O)O)ccc1N/C=C1\CCCC(C)C1=O (stereo not drawn)  2.49%
18. CCN(CC)c1ccc(NC(=O)COC(=O)CSc2ccc(Br)cc2C)cc1.O=S(=O)(O)O  2.63%
19. O=c1c(F)cn(C2CCCO2)c(=O)n1Cc1ccc(Cl)cc1 (stereo not drawn)  3.5%
20. CCN1CCN(CCNC(=O)C2CCCN(Cc3nc(-c4cccc(Cl)c4)oc3C)C2)CC1 (stereo not drawn)  3.86%
21. CCOc1cc(C(=O)OCC(=O)c2c(C)[nH]c3ccccc23)ccc1OCC(=O)N1CCOCC1  3.93%
22. CCn1cc(C(=O)NCCCN(C)c2ccccc2)c(=O)c2cc(S(=O)(=O)N(C)C)ccc21  4.63%
23. O=C1CC(c2ccc(F)cc2)Cc2nc(NCc3ccco3)ncc21 (stereo not drawn)  5.29%
24. CCOc1cccc(C(=O)NNC(=O)C2C3C=CC(C3)C2C(=O)O)c1 (stereo not drawn)  6.67%
25. Cc1c(/C=N\NC(=O)c2cc3ccccc3o2)c2ccccc2n1C  6.96%
26. Cc1nnc(SCc2c(Cl)cccc2Cl)n(N)c1=O  9.37%
27. Cc1cc(NC(C)C)n2c(nc3ccccc32)c1C#N  10.1%
28. O=C(Nc1ccc(F)cc1F)c1cccc(S(=O)(=O)N2CCCCC2)c1  10.2%
29. COc1ccc(N2C(=O)CC(Sc3nc4ccccc4s3)C2=O)cc1OC (stereo not drawn)  10.5%
30. O=C(CCC1CCCN(C(=O)c2cc(C3CC3)[nH]n2)C1)N1CCN(c2ccccn2)CC1 (stereo not drawn)  10.9%
31. CCN(CC)C(=O)Cn1cc(C(=O)C(=O)N2CCN(Cc3ccc4c(c3)OCO4)CC2)c2ccccc21  11.1%
32. Cc1ccc(-c2nnc(Nc3ccc(O)cc3)c3ccccc23)cc1S(=O)(=O)NCCO  11.2%
33. COc1ccc(N2CCN(C(=O)CSc3nnc(NC(=O)C4CCC4)s3)CC2)cc1  11.2%
34. COc1ccccc1C(=O)NCCCNC(=O)c1cnccn1  11.3%
35. CCNC(=S)N(CCc1c(C)[nH]c2ccc(C)cc12)Cc1cccnc1  11.4%
36. CCOCCCNCc1ccc(OCC(=O)N2CCOCC2)c(OC)c1.Cl  12.1%
37. Cc1cc(C)nc(N2CCC(C(=O)NCc3cccc(C(F)(F)F)c3)CC2)n1  12.1%
38. COc1ccc(Cl)cc1NC(=O)C1CC(c2ccccc2O)=NO1 (stereo not drawn)  12.5%
39. CN(C)C(=O)Oc1ccc(Br)cc1C(=O)Nc1ccc(F)c(Cl)c1  12.7%
40. COc1ccc(C(=O)N2CCn3c(C)ccc3C2C)cc1 (stereo not drawn)  12.7%
41. O=C(NC1CCCc2ccccc21)c1ccccc1Cl (stereo not drawn)  12.8%
42. CN1CCN(c2ncc(C=O)s2)CC1  13%
43. CC(C)c1cc(-c2cc(C(=O)NCc3ccccc3)on2)nc(NC2CCCC2)n1  13.1%
44. Cc1ccc(NC(=O)c2ccc(CSc3nnc(C)s3)cc2)cc1  13.2%
45. CCOC(=O)C1=C(N)Oc2cc(C)oc(=O)c2C1c1cccnc1 (stereo not drawn)  13.4%
46. CC(C)[C@H](NC(=O)NCc1ccco1)C(=O)O  13.8%
47. CCN(c1ccccc1)S(=O)(=O)c1cc(C(=O)Nc2ccccc2Cl)ccc1F  14.3%
48. COc1ccc(C2SCC(=O)Nc3c2c(C)nn3C2CCOC(C)(C)C2)cc1 (stereo not drawn)  14.8%
49. Cc1ccc(NC(=O)c2ccsc2)cc1NS(C)(=O)=O  15.1%
50. C=CCn1c(-c2ccc3ncccc3c2)n[nH]c1=S  15.3%
51. O=C(NC1CCCCC1)/C(=N\O)c1ccccn1  15.5%
52. Cc1cccc(NC(=S)NC(=O)CC2CC(C)(C)OC2=O)c1 (stereo not drawn)  16.3%
53. CCOc1ccc(C2C(C(=O)Nc3cc(C)on3)c3ccccc3C(=O)N2CCN2CCOCC2)cc1 (stereo not drawn)  16.4%
54. CCc1ccc2c(c1)C(c1ccc([N+](=O)[O-])cc1)=NNC(c1ccc(C)cc1)=N2  16.7%
55. O=C(Nc1cccc(-n2cnnn2)c1)c1ccoc1COc1ccc(Cl)cc1  19.4%
56. C=CCOc1ccc(C(=O)Nc2ncn[nH]2)cc1  23.3%
57. O=C(Nc1ccc(S(=O)(=O)N2CCCC2)cc1)c1cccs1  28.9%
